According to PubChem BioAssay AID686978 (National Center for Advancing Translational Sciences (NCATS), 2013):
Screen size: about 420,000 compounds; about 64,000 (15%) were called active. Inconclusive means that the source gave no clear call. Such entries were picked first, then a sample of the others. The call rests on the fitted dose curve; in most records, active means well fitted inhibition curve with a large enough effect; inconclusive means small, poorly fitted or top-dose-only effect; inactive means flat fitted curve, though single readings scatter. No potency is given beside an inconclusive call; the fits are too rough.

Experiment: qHTS for Inhibitors of human tyrosyl-DNA phosphodiesterase 1 (TDP1): qHTS in cells in absence of CPT; further: nearly all actives have a fitted effect of over 55% in size
Details: DT40 Tdp1-/- hTDP1 cells, no CPT, ATP luminescence, 48 h; series mostly up to 46.2 µM
How it was run: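 Camptothecin absent (DMSO only). Human TDP1-complemented DT40 knockout cells, 400 cells/well, 37 °C for minimum 48 hr; ATP measured via CellTiter-Glo, 30 min dark incubation, luminescence.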
Potency means the concentration at half of the fitted maximal effect; tags describe the fitted curve by direction and shape.

| SMILES | Potency |
| --- | --- |
| CC(=O)Nc1ccc(Nc2nc(C)c([N+](=O)[O-])c(Nc3ccccc3)n2)cc1 | active: 18.4 µM |
| CCN1C(=O)/C(=C/c2nc3ccccc3c(=O)n2-c2ccccc2)c2ccccc21 | active: 18.4 µM |
| COc1ccccc1NC(=O)CN1C(=O)C2(SCC(=O)N2c2ccc(F)c(F)c2)c2ccccc21 (configuration not stated) | inconclusive [inhibitor, single point] |
| Cc1cccc(OCCC(=O)Nc2ccc(S(=O)(=O)N3CCCC3)cc2)c1 | inconclusive [inhibitor, full curve] |
| COc1ccccc1C(CC(=O)Nc1ccc(C)c(C)c1)c1ccc(OC(C)C)cc1 (configuration not stated) | active: 20.6 µM |
| Cc1cc(C)nc(-n2nc(C)c3c2N(C)C(=O)CC3c2ccc(Cl)cc2)n1 (configuration not stated) | inconclusive [inhibitor, single point] |
| CCOc1ccc(CN2CCN(Cc3cc4ccccc4[nH]3)CC2CCO)cc1 (configuration not stated) | inconclusive [inhibitor, single point] |
| COc1ccc(C(=O)CC(=O)C(=O)Nc2ccccc2OC)cc1 | inconclusive [inhibitor, partial curve] |
| CC(=O)Nc1cccc(-c2ccnc3c2CC(C(=O)Nc2cccc(NS(C)(=O)=O)c2)O3)c1 (configuration not stated) | inactive |
| CCCCCC(=O)Nc1cccc2ccccc12 | inactive |
| COc1ccc(CCNC(=O)Cn2nnc(-c3cccc(OC)c3OC)n2)cc1OC | inconclusive [inhibitor, single point] |
| COc1ccc(F)cc1S(=O)(=O)NCC(c1ccco1)N1CCc2ccccc2C1 (configuration not stated) | inactive |
| C[C@@H](N)C(=O)N[C@H]1CCC2C3CC=C4C[C@@H](O)CC[C@]4(C)C3CC[C@@]21C (some centres not stated) | inconclusive [inhibitor, single point] |
| Cc1c(C(=O)Nc2cccc(Cl)c2)oc2ccc(S(=O)(=O)N3CCCCCC3)cc12 | inconclusive [inhibitor, single point] |
| O=C(NCc1ccco1)/C(=C/c1cccc([N+](=O)[O-])c1)NC(=O)c1ccco1 | inactive |
| NC(=O)c1cc(NC(=O)c2cc(Br)c(Br)s2)cc(C(N)=O)c1 | inactive |
| Cc1cnc(NC(=O)C2(c3ccccc3)CC2)s1 | inconclusive [inhibitor, single point] |
| C(=N\Nc1ccccn1)/c1c[nH]c2ccccc12 | inconclusive [inhibitor, single point] |
| CCc1ccccc1NC(=S)N(CCc1ccncc1)C(C)C | inactive |

| SMILES | Potency |
| --- | --- |
| COC(=O)c1cc(OC)c(OC)cc1NC(=O)CSc1ccc(C)cc1 | inconclusive [inhibitor, single point] |
| COCCCNC(=O)C[C@H]1C[C@H](C(=O)N(C(C)C)C(C)C)[C@@]2(C)c3[nH]c4cc(-c5ccco5)ccc4c3CCN2C1=O | active: 23.1 µM |
| CC1CCN(S(=O)(=O)c2ccc(C(=O)Nc3nnc(-c4ccncc4)o3)cc2)CC1 | inconclusive [inhibitor, single point] |
| Cc1ccc(NP(=O)(c2ccc(N(C)C)cc2NC(=O)c2cccs2)N2CCOCC2)cc1Cl (configuration not stated) | inconclusive [inhibitor, single point] |
| C=C(C)COc1ccc2c(C)c(C)c(=O)oc2c1OCC(=C)C | inconclusive [inhibitor, single point] |
| Cc1cc(-c2ccc(S(=O)(=O)Nc3ccccc3F)s2)on1 | inconclusive [inhibitor, single point] |
| O=C(O)Cn1nnc(-c2ccc(OCc3ccccc3Cl)cc2)n1 | inactive |
| COc1cccc(/C=N/n2c(N)c(S(=O)(=O)c3cccs3)c3nc4ccccc4nc32)c1OC | active: 5.8 µM |
| O=C(Cc1cccs1)Nc1ccc([N+](=O)[O-])cc1 | inconclusive [inhibitor, partial curve] |
| COc1ccc2cc(C(=O)C3CCCN(C(=O)c4cnn(C(C)C)c4)C3)ccc2c1 (configuration not stated) | inconclusive [inhibitor, single point] |
| CCCN(CCC)S(=O)(=O)c1ccc(NC(=O)C2CCCO2)cc1 (configuration not stated) | inconclusive [inhibitor, single point] |
| O=C1CN(C(=O)c2cc3ccccc3oc2=O)C(c2ccc(F)cc2)c2cc(F)ccc2N1 (configuration not stated) | inactive |
| Clc1ccc(OCc2nnc(SCCN3CCCCC3)n2Cc2ccco2)cc1 | inconclusive [inhibitor, single point] |
| O=S(=O)(c1cccs1)N1CCN(c2ccnc3cc(Cl)ccc23)CC1 | active: 23.1 µM |
| CCOC(=O)N1CCC(N2CCCC(C(=O)c3cccc(OC(C)C)c3)C2)CC1 (configuration not stated) | inconclusive [inhibitor, single point] |
| CCOc1cc(C(=O)OCC(=O)NCc2ccco2)cc(OCC)c1OCC | inconclusive [inhibitor, partial curve] |
| COC(=O)C1=C(C(=O)OC)[C@@H]2N(C)c3ccccc3[C@@]23C[C@@H](CO)N(C(=O)NCCBr)C3=N1 | inconclusive [inhibitor, partial curve] |
| CN1CCN(c2ncc3nc(-c4cccs4)c(=O)n(Cc4cccs4)c3n2)CC1 | inconclusive [inhibitor, single point] |
